The record followed here is publication PMC12547462, “The serine protease HTRA1 targets tau fibrils and provides a proteolytic barrier against pathogenic protein conformations” (The Journal of Biological Chemistry, 2025).

The assay concerns the target T1, tau fibrils of recombinant 4R2N tau (441-residue isoform), heparin-induced; sonicated to tau fibril seeds (human, UniProt P10636-8 1-441).
T1 construct: microtubule associated protein tau, human, 4R2N (2N4R) isoform, printed length 441 residues; the recombinant protein is named as the 441-residue isoform; numbers count on: the 441-residue human tau isoform; Amyloid fibril, many copies of the chain; Cross-linking was done with the sonicated seeds, the activity assay with fibrillar tau; also called tau seeds; fibrillar tau; source: heparin-induced …
Put plainly: cross-linking; cross-linking mass spectrometry; 5 uM tau fibril seeds and 5 uM HTRA1 S328A preincubated in 100 mM HEPES, 100 mM NaCl, pH 7.5, 15 min at 37 C; 2 mM PhoX for 15 min, quenched with Tris-HCl; trypsinized. As to conditions: both partners purified.

B1: HTRA1^S328A ([…]), Strep-tagged, lacking the N-terminal mac domain (enzyme)
chain: not shown
notes: serine protease HTRA1, […] (protease and PDZ domains, lacking the N-terminal mac domain); catalytic Ser328 exchanged by Ala
Consider B1, for which the binding result is reported as “binds”.
